# Results taken from PubChem BioAssay AID445 (National Center for Advancing Translational Sciences (NCATS), 2006).
# Screen size: about 110,000 compounds; about 40 (0.04%) were called active. The inconclusive results got no clear call from the source; some entries with a clear call stand among them for comparison. The call rests on the fitted dose curve; in most records, active means well fitted curve in the direction sought with a large enough effect in the signal ratio (not every such curve was filed as active); inconclusive means small, poorly fitted or top-dose-only effect, or a change in a side signal; inactive means flat fitted curve, though single readings scatter; the % refers to the signal ratio. Potencies beside an inconclusive call are fits to weak or partial responses and may not hold up.
# Assay: IkB Signaling;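 on IkBa stabilization activation: 0% = basal untreated cells and 100% = reference inhibitor full response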
# Settings: ABC-DLBCL IkBa-CBG/CBR dual luciferase ratio (green luciferase fused to IkBa over red control in OCI-Ly3 lymphoma cells), 4 h; IkBa stabilization activation: at 57.1 µM (top of the series), scaled: untreated 0%, proteasome inhibitor 100% unless noted
# Outline: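 Curves were fitted separately to fusion (green), unfused (red) and ratio luminescence, then classed by r2, magnitude and activity. Cells: OCI-Ly3, 4 h compound plus doxycycline at 37C; 10 uM MG-132 defined full response.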
# Potency means the concentration at half of the fitted maximal effect.
SMILES,IkBa stabilization activation,Potency
Cc1ccc(NC(=O)c2c(C)oc3ccc(O)c(CN(C)Cc4ccccc4)c23)c(C)c1,inconclusive: 1.14% [signal inhibitor],
CC[C@]1(O)C[C@@H]2CN(CCc3c([nH]c4ccccc34)[C@](C(=O)OC)(c3cc4c(cc3OC)N(C)[C@H]3[C@](O)(C(=O)OC)[C@@H](C(=O)OC)[C@@]5(CC)C=CCN6CC[C@@]43[C@@H]65)C2)C1,inactive: 0.996%,
CCc1c(C)nc(SCc2nc(-c3ccccc3C)no2)[nH]c1=O,inconclusive: 8.78% [signal inhibitor],
Cc1ccc(NC(=O)C2CCCN2S(=O)(=O)c2ccc3c(c2)C(C)(C)C(=O)N3C)cc1 (configuration not stated),inconclusive: 0.191% [signal inhibitor],
COc1ccc(-c2cc(OC)c3c(C)oc(C)c3c(=O)c2)cc1OC,inconclusive: 2.56% [signal inhibitor],
Cc1ccccc1-n1c(SCc2ccccn2)nc2n[nH]c(C)c2c1=N,inconclusive: 0.0665% [signal inhibitor],
COc1ccc(-c2cc(C)no2)cc1S(=O)(=O)NC1CCC(C)CC1 (configuration not stated),inconclusive: 4.06% [signal inhibitor],
CCOc1ccc(NC(=O)c2cc(C)nc3c2c(C)nn3-c2cccc(F)c2)cc1,inactive: -2.78%,
CCOc1ccc(-n2ccnc2SCC(=O)Nc2ccc3c(c2)OCO3)cc1,inconclusive: -0.15% [signal inhibitor],
Cc1c(OCC(F)(F)F)ccnc1CS(=O)c1nc2ccccc2[nH]1 (configuration not stated),inactive,
COc1ccc(S(=O)(=O)NCCc2sc3nc(-c4ccc(C)cc4)nn3c2C)cc1F,inconclusive: 1.63% [signal inhibitor],
CCOc1ccc(CNC(=O)c2cnc3sc(N(CC)CC)nn3c2=O)cc1,inconclusive: -5.07% [signal inhibitor],
Cc1ccc(CNC(=O)CN2CCN(Cc3ccc(Cl)cc3)C2=O)cc1,inconclusive: -0.48% [signal inhibitor],
CN(C)c1ccc(N=Cc2nc(-c3ccccc3)oc2O)cc1,inactive: -0.27%,
O=C(CSC1=Nc2ccccc2N=C(c2ccc(F)cc2)C1)Nc1ccc(Cl)cc1,inconclusive: 2.68% [signal inhibitor],
CCc1cccc(C)c1NC(=O)c1ccc2c(c1)CCN2S(=O)(=O)CC,inconclusive: -0.367% [signal inhibitor],
O=C(COC(=O)c1ccccc1S(=O)(=O)N1CCCCC1)NCC(F)(F)F,inconclusive: 9.06% [signal inhibitor],
CC(C)NC(=O)C1CCN(C(=O)c2cc3sccc3n2Cc2ccc(F)cc2)CC1,inconclusive: 1.31% [signal inhibitor],
Cc1ccccc1-c1nnc(SCC(=O)NC2CCCCC2)o1,inactive: 0.781%,
COc1ccc(N2CCN(C(=O)C(C)n3c(=O)cc(C(F)(F)F)c4c(C)nn(C)c43)CC2)cc1 (configuration not stated),inconclusive: 8.95% [signal inhibitor],
Cc1cccn2cc(CNc3ccccc3)nc12,inactive: 2.32%,

SMILES,IkBa stabilization activation,Potency
Cc1ccc(CN(Cc2cc3cc(C)ccc3[nH]c2=O)C(=O)N2CCOCC2)cc1,inactive: -0.492%,
CCn1c2ccccc2c2cc(NC(=O)CSc3nnc(C4CC4)n3Cc3ccco3)ccc21,inconclusive: 5.56% [signal inhibitor],
COc1ccc(CN(C(=O)CN2C(=O)COc3ccccc32)C2CCCC2)c(OC)c1,inconclusive: 1.11% [signal inhibitor],
Cc1ccc(-n2c(=O)c3oc4ccccc4c3n(CC(=O)Nc3ccc(F)c(Cl)c3)c2=O)cc1C,inconclusive: 6.36% [signal inhibitor],
O=C(CS(=O)(=O)c1cccc2nsnc12)Nc1ccc(F)cc1F,inconclusive: -0.114% [signal inhibitor],
O=C(Nc1ccccc1F)C1CCN(S(=O)(=O)c2ccc3c(c2)CCCN3C(=O)C2CCC2)CC1,inconclusive: 0.866% [signal inhibitor],
CN1CCc2cc3c(cc2C(=O)Cc2ccc4c(c2C1)OCO4)OCO3,"inactive: 2.84% [at 11.4 µM, scaled: untreated 0%, proteasome inhibitor 100%]",
Cc1cc(C)n(S(=O)(=O)c2cc(C(=O)O)c(Cl)cc2Cl)n1,inactive: -0.588%,
O=C(Nc1ccc(C(=O)OCc2cc(=O)n3nc(C4CC4)sc3n2)cc1)c1cccc(Cl)c1,inconclusive: -1.04% [signal inhibitor],
CCc1ccccc1NC(=O)C(CC)Oc1ccccc1-c1nnc(-c2ccccc2)o1 (configuration not stated),inconclusive: 5.68% [signal inhibitor],
Cc1c(NC(=O)c2noc3c2CCc2ccccc2-3)c(=O)n(-c2ccccc2)n1C,,"inconclusive: 20 µM [signal inhibitor, partial curve]"
C[C@@H]1CC2(OC[C@]3(C)O[C@H]23)O[C@H]2C[C@@]3(C)[C@@H]4CC[C@H]5C(C)(C)C(O[C@@H]6OC[C@@H](O)[C@H](O)[C@H]6O)CC[C@@]56C[C@@]46CC[C@]3(C)[C@@H]12 (some centres not stated),inactive: 0.172%,
CCOc1ccc(CCNC(=O)c2cccc(-n3c(C)nc4cccnc43)c2C)cc1,inconclusive: -0.744% [signal inhibitor],
C=CCNc1nc(NCc2ccco2)nc(OCC)n1,inconclusive: -4.64% [signal activator],
CCOC(=O)C1CCCN(C(=O)c2cc3nc(-c4cccc(OC)c4)cc(C(F)(F)F)n3n2)C1 (configuration not stated),,"inconclusive: 2.51 µM [signal inhibitor, partial curve]"
COc1ccc(C2(C)NC(=O)N(Cc3cc(Cl)cc4c3OCOC4)C2=O)cc1OC (configuration not stated),inactive: -0.704%,
CSc1ccccc1NC(=O)c1cc(-c2cccs2)on1,,"inconclusive: 10 µM [signal inhibitor, partial curve]"
O=C1CC(c2ccc(Cl)cc2)c2cc3c(cc2N1)OCCO3 (configuration not stated),inconclusive: 8.59% [signal inhibitor],
CCCCCn1c(=O)[nH]c2cc(C(=O)N3CCN(c4cccc(OC)c4)CC3)ccc2c1=O,inconclusive: 1.59% [signal inhibitor],
CCc1ccc(C2CC(c3ccccc3)Nc3nc(N)nn32)cc1 (configuration not stated),inactive: -1.81%,
COc1ccc(-c2nc3c(c(SCC(=O)Nc4ccccc4OC)n2)Cc2cccc(C)c2O3)cc1,inconclusive: 1.06% [signal inhibitor],
